The whole screen tested about 410,000 compounds, of which about 1,200 (0.29%) were called active. The inconclusive results got no clear call from the source; some entries with a clear call stand among them for comparison. Calls come from the whole dose curve; as a rule, active = well fitted activation curve with a large enough effect; inconclusive = small, poorly fitted or top-dose-only effect; inactive = flat fitted curve, though single readings scatter. Potencies beside an inconclusive call are fits to weak or partial responses and may not hold up.
Test: qHTS of Nrf2 Activators; note: nearly all actives have a fitted effect of over 65% in size
Details: AREc32 ARE-luciferase reporter (MCF7-derived line), luminescence, 24 h; series mostly up to 46.1 µM
In short: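 ARE-driven firefly luciferase activity in AREc32 cells measured after a 24 hr compound exposure at 37 deg C, using Steady-Glo reagent and a 30 min room-temperature hold.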
Potency is the fitted concentration of half-maximal effect; tags give direction and shape of the fitted curve.

Row | Structure (SMILES) | Potency
1 | Cc1cc(C)cc(NC(=O)CSc2nncn3c2cc2occc23)c1 | inactive
2 | COc1ccc(C(=O)/C=C/c2ccc(OC)c(CN3CCOCC3)c2)cc1 | inconclusive: 20 µM [activator, partial curve, poor fit]
3 | CCN(CC)C(=O)CSc1nnc2sc3ccccc3n12 | inconclusive: 11.2 µM [activator, partial curve, poor fit]
4 | C=CC(=O)Nc1sc2c(c1C(N)=O)CCCC2 | inconclusive: 11.2 µM [activator, partial curve]
5 | CCN(CC)CCN(C(=O)/C=C/c1cccs1)c1nc2ccc(C)cc2s1 | inconclusive: 4.47 µM [activator, single point]
6 | CC(=O)c1cccc(Nc2nc(-c3cccc([N+](=O)[O-])c3)cs2)c1 | inconclusive: 0.562 µM [activator, full curve, poor fit]
7 | c1ccc(-c2cc(-c3ccccc3)[nH]n2)cc1 | inconclusive: 3.55 µM [activator, single point]
8 | Cc1cc2oc(C(=O)Nc3sc4c(c3C(=O)NCC3CCCO3)CCC4)cc(=O)c2cc1C (stereo unspecified) | inactive
9 | CCc1ccc(N2C(=O)CC(c3cc(OC)ccc3OC)C3=C2COC3=O)cc1 (stereo unspecified) | inactive
10 | Cc1[nH][nH]c(=O)c1[C@@H](c1ccccc1[N+](=O)[O-])C(C#N)C#N | inconclusive: 28.2 µM [activator, single point]
11 | CC1CCCCN1CCNC(=O)c1cc2c(-c3ccccc3F)nn(C)c2s1 (stereo unspecified) | inactive
12 | Cc1noc(C)c1/C=N/Nc1ccc2ccccc2n1 | inconclusive: 3.55 µM [activator, partial curve, poor fit]
13 | Cc1nc2cc(NC(=O)CS(=O)(=O)c3ccccc3)ccc2s1 | inactive
14 | O=C1C=C(NC2=CC3OC(c4ccccc4)OCC3OC2=O)CCC1 (stereo unspecified) | inconclusive: 22.4 µM [activator, single point]
15 | Cc1ccc(OCC(=O)N/N=C/C=C/c2ccco2)cc1 | inconclusive: 20 µM [activator, single point]
16 | COC(=O)c1ccc(Cn2cc(/C=C\[N+](=O)[O-])c3ccccc32)o1 | inconclusive: 35.5 µM [activator, partial curve, poor fit]
17 | CC(Oc1ccc(Cl)cc1Cl)C(=O)NCCCN(C)C (stereo unspecified) | inactive
18 | S=c1nc(-c2ccccc2)[nH]c2ccc(Br)cc12 | inconclusive: 0.891 µM [activator, full curve, poor fit]
19 | COCCN(CCOC)C(=O)COC(=O)c1ccc(Cl)c(S(=O)(=O)N(C)c2ccccc2)c1 | inactive
20 | O=C(CC(SCCO)c1ccc2c(c1)OCO2)c1cccs1 (stereo unspecified) | inconclusive: 28.2 µM [activator, single point]
21 | Cc1ccc(C)c(N=Nc2nc3ccccc3n2C)c1 | inconclusive: 3.16 µM [activator, partial curve, poor fit]
22 | Cc1ccc(-c2nc3sccn3c2Nc2ccccc2C)cc1 | inactive
23 | O=C(Nc1nc2c(Cl)ccc(Cl)c2s1)C1CC1 | inconclusive: 2.51 µM [activator, full curve, poor fit]

Row | Structure (SMILES) | Potency
24 | Cc1ccc(C)c(S(=O)(=O)NCc2ccc(C(=O)NCc3ccco3)cc2)c1 | inactive
25 | O=C(CCc1ccccc1)NCCc1csc(-c2cccc(F)c2)n1 | inactive
26 | CCS(=O)(=O)c1ccc(-c2csc(-c3ccc(Cl)cc3)n2)c(Cl)c1Cl | inconclusive: 12.6 µM [activator, single point]
27 | CCn1c(/C=C/c2ccccc2[N+](=O)[O-])nc2ccccc2c1=O | inconclusive: 3.16 µM [activator, partial curve, poor fit]
28 | O=C(N/N=C/c1cn[nH]c1-c1ccccc1)c1ccco1 | active: 8.91 µM
29 | O=C1N(CN2CCN(c3cccc(Cl)c3)CC2)c2ccccc2C12OCCCO2 | inactive
30 | O=C(CCc1nc(-c2ccccc2)no1)NCc1ccco1 | inconclusive: 20 µM [activator, single point]
31 | COc1ccc(C(=O)/C=C2/C(=O)Nc3ccccc32)cc1 | inconclusive: 31.6 µM [activator, single point]
32 | COC(=O)c1ccccc1NC(=O)/C=C/c1ccco1 | inconclusive: 1.12 µM [activator, full curve, poor fit]
33 | Cc1ccc(-c2noc(-c3ccoc3C)n2)cc1 | inconclusive: 11.2 µM [activator, partial curve]
34 | N#C/C(=C/c1ccccc1[N+](=O)[O-])C(=O)NCc1ccco1 | inconclusive: 20 µM [activator, single point]
35 | Cc1cc(C(=O)COc2cccc([N+](=O)[O-])c2)c(C)n1C1CC1 | inactive
36 | C[n+]1ccccc1/C=C/c1cc(Br)ccc1O | inconclusive: 11.2 µM [activator, partial curve]
37 | COC(=O)c1ccsc1NC(=O)CCc1ccccc1 | inconclusive: 3.55 µM [activator, partial curve, poor fit]
38 | COc1cccc(C2=Nc3cccc4cccc(c34)N2)c1 | inconclusive: 28.2 µM [activator, single point]
39 | COc1ccc(NC(=O)[C@@H]2CCCN2S(=O)(=O)c2ccccc2F)cc1S(=O)(=O)N1CCCCC1 | inactive
40 | CC(C)(C)c1ccc(C(=O)OCC(=O)NCc2ccco2)cc1 | inconclusive: 17.8 µM [activator, single point]
41 | Cn1c(=O)n(C)c2cc(NC(=O)c3cccc([N+](=O)[O-])c3)c(Br)cc21 | inconclusive: 2.82 µM [activator, full curve, poor fit]
42 | COC(=O)c1c(NC(=O)/C=C/C(=O)O)sc(C)c1-c1ccc(C)cc1 | active: 20 µM
43 | CC(=O)c1ccc(OC(C)c2nc3ccccc3s2)cc1 (stereo unspecified) | inactive
44 | CCOc1ccc(C(=O)CC(Sc2ccc(C)cc2)C(=O)O)cc1 (stereo unspecified) | active: 17.8 µM
45 | O=C(NCc1ccco1)c1ccc([N+](=O)[O-])o1 | inconclusive: 20 µM [activator, single point]
46 | Cc1cc(-c2ccc(Br)s2)nc(-n2cccc2)n1 | inconclusive: 17.8 µM [activator, single point]

From PubChem BioAssay AID624171 (National Center for Advancing Translational Sciences (NCATS), 2012)
